Experimental data reported in the supplement of paper PMC3334620.
Whole data set: some 33,000 sequences, median “E-score (-0.5 to 0.5)” near -0.043, cut for the highest 2% near 0.37. The list shows a part of the results.

Each sequence was assayed against T1, Upc2 (UniProt Q12151) (assay: PBM E-score (8-mer binding enrichment) (E-score (-0.5 to 0.5)); higher = stronger / more preferred TF binding; most listed sequences are background and not binding sites). Details: protein concentration: 200 nM; construct: GST-full length.
T1 sequence: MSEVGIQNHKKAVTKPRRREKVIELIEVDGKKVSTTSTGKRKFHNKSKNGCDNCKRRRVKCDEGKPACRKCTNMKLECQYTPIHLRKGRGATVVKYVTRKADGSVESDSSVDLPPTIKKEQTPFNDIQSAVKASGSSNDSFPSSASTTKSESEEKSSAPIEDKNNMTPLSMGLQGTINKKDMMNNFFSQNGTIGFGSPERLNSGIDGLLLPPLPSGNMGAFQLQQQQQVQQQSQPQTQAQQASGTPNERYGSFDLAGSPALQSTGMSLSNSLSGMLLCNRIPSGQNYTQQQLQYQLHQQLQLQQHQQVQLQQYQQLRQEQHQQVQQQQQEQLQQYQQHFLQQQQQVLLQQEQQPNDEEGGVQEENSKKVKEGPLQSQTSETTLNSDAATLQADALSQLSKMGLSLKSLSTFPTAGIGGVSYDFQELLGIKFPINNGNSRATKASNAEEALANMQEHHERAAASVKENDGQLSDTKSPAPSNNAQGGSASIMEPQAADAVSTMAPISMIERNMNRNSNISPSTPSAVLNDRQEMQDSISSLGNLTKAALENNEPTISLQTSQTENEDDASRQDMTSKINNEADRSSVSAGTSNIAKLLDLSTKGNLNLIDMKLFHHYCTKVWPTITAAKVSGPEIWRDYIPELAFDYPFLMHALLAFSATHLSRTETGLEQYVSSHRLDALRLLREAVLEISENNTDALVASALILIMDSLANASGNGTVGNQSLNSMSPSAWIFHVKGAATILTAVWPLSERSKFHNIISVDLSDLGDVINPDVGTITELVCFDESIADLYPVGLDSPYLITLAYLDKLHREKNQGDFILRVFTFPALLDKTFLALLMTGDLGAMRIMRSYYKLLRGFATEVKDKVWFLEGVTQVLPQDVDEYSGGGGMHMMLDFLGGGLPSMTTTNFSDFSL
Procedure, shortened: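 PURExpress in vitro transcription/translation supplied GST-tagged yeast transcription factors, either full-length or DNA-binding domain. Applied at about 100-200 nM to universal all-10-mer Agilent arrays double-stranded by primer extension, the bound protein was detected with fluorescent anti-GST. E-scores, modified Wilcoxon-Mann-Whitney statistics, were given by the Universal PBM Analysis Suite to ungapped eight-base words pooled with their reverse complements after masliner normalisation.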
For GCAACCAA, the “PBM E-score” value was -0.155.
In the case of CTTCCCAC, the “PBM E-score” value is reported as -0.00438.
For GGAACACC, the “PBM E-score” value was -0.233.
In the case of AGAACTAA, the “PBM E-score” value is reported as -0.0173.
With ATCGACGG the “PBM E-score” value was -0.132.
In the case of GACCCTCC, the “PBM E-score” value is reported as -0.0284.
TCAACGCA was tested, and the “PBM E-score” value was 0.014.
With AGAGATAA the “PBM E-score” value was -0.106.
With CACACACG the “PBM E-score” value was 0.0146.
In the case of ATCGGCTG, the “PBM E-score” value is reported as -0.158.
In the case of CGTGGACC, the “PBM E-score” value is reported as -0.132.
For AGTTTTTC, the “PBM E-score” value was -0.0455.
For AACGCAGA, the “PBM E-score” value was 0.103.
For CGTTGCCA, the “PBM E-score” value was 0.165.
GGGCTGAA was tested, and the “PBM E-score” value was -0.094.
ATCGATTC was tested, and the “PBM E-score” value was 0.0179.
For GCGCAATA, the “PBM E-score” value was 0.144.
With ATCAGGGG the “PBM E-score” value was -0.186.
For AGAAGGGC, the “PBM E-score” value was -0.0899.
With GGCACATA the “PBM E-score” value was -0.0498.
With GTGTCCCA the “PBM E-score” value was -0.077.
For CAGCGAAC, the “PBM E-score” value was 0.0986.
For GGAGGCAA, the “PBM E-score” value was -0.152.
In the case of AGGTCGAG, the “PBM E-score” value is reported as -0.149.
In the case of GTATGCTA, the “PBM E-score” value is reported as 0.0964.
In the case of CCGCTAGG, the “PBM E-score” value is reported as -0.19.
In the case of CACCACAA, the “PBM E-score” value is reported as -0.0979.
For CGGGCACG, the “PBM E-score” value was -0.133.
AACCTTCT was tested, and the “PBM E-score” value was -0.262.
GTAATATA was tested, and the “PBM E-score” value was 0.197.
ACGTCGCA was tested, and the “PBM E-score” value was 0.201.
For ACTGGGCA, the “PBM E-score” value was -0.0797.
With CCATCAGG the “PBM E-score” value was -0.216.
ATATAAGG was tested, and the “PBM E-score” value was -0.116.
TATCACGA was tested, and the “PBM E-score” value was 0.108.
With GTAAGAAC the “PBM E-score” value was 0.207.
With CTCGTAAC the “PBM E-score” value was 0.425.
AATTTCAA was tested, and the “PBM E-score” value was 0.0209.
With ACAAACCT the “PBM E-score” value was -0.154.
In the case of AGGTATAG, the “PBM E-score” value is reported as 0.103.
CACGACCA was tested, and the “PBM E-score” value was -0.0648.
With CTACCTGC the “PBM E-score” value was -0.204.
For ATCCGAGA, the “PBM E-score” value was 0.238.
In the case of AGCTGGGA, the “PBM E-score” value is reported as -0.277.
CACAGCCA was tested, and the “PBM E-score” value was -0.193.
AGGCCGTC was tested, and the “PBM E-score” value was -0.02.
In the case of CGCCCAGC, the “PBM E-score” value is reported as -0.0365.
In the case of GAGTACCC, the “PBM E-score” value is reported as 0.0344.
GCGTAGGA was tested, and the “PBM E-score” value was -0.0966.
With CTGAACAC the “PBM E-score” value was 0.0787.
For AGCCATCC, the “PBM E-score” value was -0.225.
With GCGTCAAA the “PBM E-score” value was 0.0523.
With CGGTTACC the “PBM E-score” value was 0.301.
In the case of ACACGCGT, the “PBM E-score” value is reported as 0.152.
With AGTTGCTC the “PBM E-score” value was -0.148.
GCAACGCC was tested, and the “PBM E-score” value was -0.17.
For ATATTAAG, the “PBM E-score” value was -0.108.
With AAAACTTT the “PBM E-score” value was -0.073.
For AACGGCCA, the “PBM E-score” value was 0.181.
In the case of CACTGGTC, the “PBM E-score” value is reported as -0.0102.
For AAATGACC, the “PBM E-score” value was -0.129.
For GGCCTAAA, the “PBM E-score” value was -0.155.
For ACAGACAG, the “PBM E-score” value was -0.00816.
With ACCAGTGG the “PBM E-score” value was -0.247.
With ACTGTCGA the “PBM E-score” value was 0.0599.
In the case of GACGTCGA, the “PBM E-score” value is reported as 0.11.
ATCCTTTC was tested, and the “PBM E-score” value was -0.0818.
GGCGGGGA was tested, and the “PBM E-score” value was 0.232.
CCGATCTA was tested, and the “PBM E-score” value was 0.0149.
In the case of ACAGTGGT, the “PBM E-score” value is reported as 0.0357.
In the case of CGAAACGC, the “PBM E-score” value is reported as 0.15.
AGTAGCGG was tested, and the “PBM E-score” value was -0.151.
For GAATGCCA, the “PBM E-score” value was -0.209.
CAAGTGCG was tested, and the “PBM E-score” value was -0.11.
With CGCAGAAG the “PBM E-score” value was -0.089.
ATACCGGA was tested, and the “PBM E-score” value was 0.096.
In the case of AGGCCGGG, the “PBM E-score” value is reported as -0.0884.
For AGATCTCC, the “PBM E-score” value was -0.185.
In the case of GGGTCGAA, the “PBM E-score” value is reported as 0.0267.
In the case of TCGCGCGA, the “PBM E-score” value is reported as 0.0486.
AGAACTAG was tested, and the “PBM E-score” value was -0.332.
In the case of ATTGATCC, the “PBM E-score” value is reported as -0.142.
For TAACGTTA, the “PBM E-score” value was 0.102.
In the case of CGAATACC, the “PBM E-score” value is reported as 0.0972.
With AGATCCAA the “PBM E-score” value was -0.0522.
AAACTCAC was tested, and the “PBM E-score” value was -0.0591.
